# Counter-ions that a name gives are not always drawn. The list shows a part of the results. No stated cut-off is given here; in the data, active = 0.5 or less and inactive = the rest. Many values rest on one well or one pass, so single values are uncertain.
# Legend:
# Settings in all cases: 50 µM; 24 h
# [1] = test system: HeLa VPS33A reporter cells; experiment: relative cell viability (CellMask signal) vs DMSO (fraction of DMSO); higher = less cytotoxic;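 further: primary screen of an FDA-approved drug library in HeLa reporter cells in 96-well format, CellMask signal normalized to DMSO-treated wells set as 1, under 0.5 deemed highly cytotoxic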
# [2] = test system: HeLa VPS33A R498W KI + HA-SDC1-FLAG; experiment: relative GAG core protein HA-SDC1 amount per cell number vs DMSO (fraction of DMSO); higher = more SDC1 (GAG core protein);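 further: HA-SDC1 level read out by In-Cell Western staining with an anti-HA antibody against the N-terminal tag, screening FDA-approved library drugs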
# [3] = test system: HeLa VPS33A KO + NLuc-VPS33A R498W; experiment: relative mutant VPS33A R498W amount (NanoLuc luminescence) vs DMSO (fraction of DMSO); HeLa model of a glycosaminoglycan (GAG) storage disease; KI is knock-in and KO knock-out; SDC1 is syndecan 1; higher = higher mutant VPS33A level;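 further: screen of an FDA-approved drug library, NanoLuc luminescence read after lysing the treated cells, taken as a measure of mutant VPS33A protein stability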
Compound,relative cell viability [1],relative GAG core protein HA-SDC1 amount per cell number [2],relative mutant VPS33A R498W amount [3]
NCCc1c[nH]cn1 [Histamine 2HCl],1.07,inactive: 1.07,1.49
Cc1ccc(N(CC2=NCCN2)c2cccc(O)c2)cc1 [Phentolamine Mesylate],1.13,inactive: 0.68,0.833
COc1ccc2cc(CCC(C)=O)ccc2c1 [Nabumetone],1.02,inactive: 0.818,1.08
CC(C)CCCCC(=O)N[C@@H](CCN)C(=O)N[C@@H](CN[C@@H](CCN)C(=O)N[C@H]1CCNC(=O)[C@H]([C@@H](C)O)NC(=O)[C@H](CCN)NC(=O)[C@H](CCN)NC(=O)[C@H](CC(C)C)NC(=O)[C@@H](CC(C)C)NC(=O)[C@H](CCN)NC1=O)[C@@H](C)O.CCC(C)CCCCC(=O)N[C@@H](CCN)C(=O)N[C@@H](CN[C@@H](CCN)C(=O)N[C@H]1CCNC(=O)[C@H]([C@@H](C)O)NC(=O)[C@H](CCN)NC(=O)[C@H](CCN)NC(=O)[C@H](CC(C)C)NC(=O)[C@@H](CC(C)C)NC(=O)[C@H](CCN)NC1=O)[C@@H](C)O (stereo partly specified) [Colistin Sulfate],1.09,inactive: 0.998,0.973
CCN(CC)CCCC(C)Nc1ccnc2cc(Cl)ccc12 (stereo unspecified) [Chloroquine diphosphate],1.19,inactive: 1.35,0.826
CC(C)=C1C/C=C(\C)CC/C=C(\C)CC1=O [Germacrone],0.992,inactive: 0.7,0.903
CCN(CC)CCNC(=O)c1cc(Cl)c(N)cc1OC [Metoclopramide],1.03,inactive: 1.66,1.32

# Reference: the supplement of paper PMC12355420
